Results on 37 molecules are retold here after the supplement of paper PMC9446081.

Hit rate of the full screen: of about 39,000 compounds, about 220 (0.56%) showed activity. The list shows a part of the results.
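Further: static incubation at 37 °C against the wild-type strain, values averaged over two biological replicates.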

For the assay, the system named is Escherichia coli K-12 BW25113. Put plainly: relative growth (OD600 normalised to plate interquartile mean) (fraction); higher = less growth inhibition, active = 0.2 or less. The note with it: 50 µM; LB; incubation time: overnight (16-24 h).
Take `CCS(=O)(=O)N1CC[C@]2(CC1)CN(CC1CCOCC1)[C@@H](CO)c1c2c2ccc(cc2n1C)OC`: the relative growth is inactive: 0.995.
With `CC(=O)OC1CC2C(C)(C)C(=O)CCC2(C)C2CCC3(C)C(c4ccoc4)OC(=O)C4OC43C12C` (configuration not stated) the figure was inactive: 1.15; with `COCC(=O)Nc1ccc2c(c1)C(=O)N(C)C[C@@H](OC)[C@H](C)CN(C(=O)Cc1cccnc1)[C@H](C)CO2`, inactive: 0.975; with `C[C@@H]1CN([C@H](C)CO)C(=O)c2c(c3ccccc3n2C)-c2ccccc2CO[C@H]1CN(C)Cc1cccc(O)c1`, inactive: 0.928.
Take `N[C@@H](C(=O)O)c1ccc(O)c(C(=O)O)c1`: the relative growth was inactive: 1.01.
With `C[C@@H]1CCCCO[C@@H](CN(C)C(=O)CCCN(C)C)[C@H](C)CN([C@@H](C)CO)C(=O)c2cc(NC(=O)Nc3cccc4ccccc34)ccc2O1` the figure was inactive: 0.994; with `C/C=C/C(=O)c1cc(Cl)ccc1O`, inactive: 0.964; with `Cc1noc(C)c1S(=O)(=O)N(C)C[C@H]1OCCCC[C@H](C)Oc2ccc(NC(=O)Nc3cccc4ccccc34)cc2C(=O)N([C@@H](C)CO)C[C@@H]1C`, inactive: 1.04.
The value for `C[C@H]1CCCCO[C@H](CN(C)C(=O)c2ccccc2)[C@@H](C)CN([C@@H](C)CO)C(=O)c2cc(NC(=O)Cc3ccccc3)ccc2O1` was inactive: 0.996; that for `Cc1noc(C)c1NC(=O)N(C)C[C@@H]1Oc2ccc(NC(=O)Nc3ccc(C(F)(F)F)cc3)cc2CC(=O)N([C@@H](C)CO)C[C@@H]1C` was inactive: 0.905.
With `CNC[C@@H]1Oc2ccc(NC(=O)Cn3cnnn3)cc2C(=O)N([C@H](C)CO)C[C@H]1C`, the relative growth was inactive: 0.995.
The value for `C[C@@H]1CN([C@H](C)CO)C(=O)Cc2cc(N(C)C)ccc2O[C@@H]1CN(C)S(=O)(=O)c1ccc(Cl)cc1` was inactive: 0.997; that for `C[C@H]1CN([C@@H](C)CO)C(=O)c2c(c3ccccc3n2C)-c2ccccc2CO[C@H]1CN(C)Cc1cccc2c1OCCCO2` was inactive: 0.999.
With `O=C(C[C@H]1CC[C@H]2[C@@H](COC[C@@H](O)CN2S(=O)(=O)c2ccc(Cl)cc2)O1)N[C@H]1CCN(Cc2ccccc2)C1` the figure was inactive: 1.02; with `C[C@@H]1CN([C@@H](C)CO)C(=O)c2cc(NS(=O)(=O)c3ccccc3)ccc2O[C@@H](C)CCCCO[C@H]1CN(C)Cc1ccccc1`, inactive: 0.979.
With `C[C@@H]1CN([C@H](C)CO)C(=O)c2cccc(NC(=O)c3nc4ccccc4s3)c2O[C@H]1CN(C)S(C)(=O)=O` the figure was inactive: 0.991; with `COc1ccc(S(=O)(=O)N(C)C[C@H]2Oc3c(NC(=O)c4cnccn4)cccc3C(=O)N([C@@H](C)CO)C[C@H]2C)cc1`, inactive: 1.01; with `Cc1ccc(S(=O)(=O)Nc2ccc3c(c2)C(=O)N([C@@H](C)CO)C[C@@H](C)[C@H](CN(C)S(C)(=O)=O)O3)cc1`, inactive: 0.994.
For `COc1ccc(NC(=O)N(C)C[C@H]2OCCCC[C@@H](C)Oc3ccc(NS(=O)(=O)c4ccccc4)cc3C(=O)N([C@H](C)CO)C[C@@H]2C)cc1`, the relative growth is inactive: 1.01.
With `CC(C)NC(=O)Nc1ccc2c(c1)C(=O)N([C@H](C)CO)C[C@@H](C)[C@H](CN(C)S(C)(=O)=O)OCCCC[C@H](C)O2` the figure was inactive: 1.01.
The value for `CN1CCN(C(=O)C[C@@H]2CC[C@@H]3[C@H](COC[C@H](O)CN3Cc3ccc4c(c3)OCO4)O2)CC1` was inactive: 0.981; that for `CCCNC(=O)N[C@H]1C=C[C@H](CC(=O)N2CCN(C)CC2)O[C@H]1CO` was inactive: 0.985; that for `CC(CCC(=O)O)C1CCC2C3CC(O)C4CC(O)CCC4(C)C3CCC12C` (stereo not drawn) [alpha-HYDROXYDEOXYCHOLIC ACID] was inactive: 1.14.
With `C[C@@H]1CCCCO[C@@H](CN(C)C(=O)CCCN(C)C)[C@@H](C)CN([C@@H](C)CO)C(=O)c2cc(N(C)C)ccc2O1`, the relative growth is inactive: 1.02.
The value for `COc1cccc(NC(=O)C[C@H]2CC[C@H]3[C@@H](COc4ccc(NC(=O)C5CCOCC5)cc4C(=O)N3C)O2)c1` was inactive: 1.
As to `CC(C)NC(=O)Nc1ccc2c(c1)C(=O)N([C@H](C)CO)C[C@@H](C)[C@@H](CN(C)Cc1ccc(C(F)(F)F)cc1)OCCCC[C@H](C)O2`, the relative growth is inactive: 0.797.
`C[C@H](CO)N1C[C@H](C)[C@H](CN(C)Cc2ccc(Cl)c(Cl)c2)Oc2ccc(NC(=O)Cc3ccccc3)cc2CC1=O`: the relative growth is inactive: 1.01.
On to `Cc1noc(C)c1NC(=O)Nc1ccc2c(c1)C(=O)N([C@H](C)CO)C[C@@H](C)[C@H](CN(C)C(=O)Nc1cccc3ccccc13)OCCCC[C@H](C)O2`, for which the relative growth is inactive: 1.
With `COc1ccc(S(=O)(=O)N(C)C[C@@H]2Oc3c(NS(=O)(=O)c4ccc(F)cc4)cccc3C(=O)N([C@H](C)CO)C[C@H]2C)cc1` the figure was inactive: 0.984; with `C[C@@H]1CN([C@@H](C)CO)C(=O)Cc2cc(NC(=O)Cc3cn(C)c4ccccc34)ccc2O[C@H]1CN(C)Cc1ccc(-c2ccccc2)cc1`, inactive: 1.01.
With `C=CCOC(=O)[C@H]1[C@@H]2C(=O)O[C@@H](c3ccccc3)[C@@H](c3ccccc3)N2[C@@H](c2ccc(OCCOC(=O)[C@H]3C[C@H]4C(=O)N5CCC[C@H]5C(=O)N4[C@H]3c3ccc(O)cc3)cc2)[C@]12C(=O)Nc1ccc(I)cc12` the figure was inactive: 1.02; with `Cc1ccc(C(C)C)cc2c(C)ccc1-2`, inactive: 1.09; with `C[C@H](CO)N1C[C@H](C)[C@H](CN(C)S(C)(=O)=O)Oc2ccc(NC(=O)Nc3ccccc3)cc2CC1=O`, inactive: 0.984.
With `C[C@@H]1CCCCO[C@H](CN(C)Cc2ccc(C(=O)O)cc2)[C@H](C)CN([C@@H](C)CO)C(=O)c2cc(NS(=O)(=O)c3cccs3)ccc2O1` the figure was inactive: 1.01.
In the case of `CC(C)(C)S(=O)N1Cc2cc(C(=O)Nc3ccc(-c4ccccc4)cc3)nc(-c3cccc(-c4cccc(F)c4)c3)c2[C@@H]1CCO` (some centres not stated), the relative growth is inactive: 0.999.
With `CC(C)NC(=O)Nc1ccc2c(c1)C(=O)N([C@H](C)CO)C[C@@H](C)[C@H](CN(C)S(=O)(=O)c1ccc(F)cc1)O2` the figure was inactive: 1.02; with `COCCNC(=O)C[C@H]1CC[C@H]2[C@@H](COC[C@@H](O)CN2S(=O)(=O)c2ccccc2F)O1`, inactive: 0.964.
